# In all, about 33,000 sequences were measured (“E-score (-0.5 to 0.5)”: median about -0.011, highest 2% from about 0.28 on). Some of the results follow.
# Molecular target: T1, Gcr1 (UniProt P07261)
# T1 sequence: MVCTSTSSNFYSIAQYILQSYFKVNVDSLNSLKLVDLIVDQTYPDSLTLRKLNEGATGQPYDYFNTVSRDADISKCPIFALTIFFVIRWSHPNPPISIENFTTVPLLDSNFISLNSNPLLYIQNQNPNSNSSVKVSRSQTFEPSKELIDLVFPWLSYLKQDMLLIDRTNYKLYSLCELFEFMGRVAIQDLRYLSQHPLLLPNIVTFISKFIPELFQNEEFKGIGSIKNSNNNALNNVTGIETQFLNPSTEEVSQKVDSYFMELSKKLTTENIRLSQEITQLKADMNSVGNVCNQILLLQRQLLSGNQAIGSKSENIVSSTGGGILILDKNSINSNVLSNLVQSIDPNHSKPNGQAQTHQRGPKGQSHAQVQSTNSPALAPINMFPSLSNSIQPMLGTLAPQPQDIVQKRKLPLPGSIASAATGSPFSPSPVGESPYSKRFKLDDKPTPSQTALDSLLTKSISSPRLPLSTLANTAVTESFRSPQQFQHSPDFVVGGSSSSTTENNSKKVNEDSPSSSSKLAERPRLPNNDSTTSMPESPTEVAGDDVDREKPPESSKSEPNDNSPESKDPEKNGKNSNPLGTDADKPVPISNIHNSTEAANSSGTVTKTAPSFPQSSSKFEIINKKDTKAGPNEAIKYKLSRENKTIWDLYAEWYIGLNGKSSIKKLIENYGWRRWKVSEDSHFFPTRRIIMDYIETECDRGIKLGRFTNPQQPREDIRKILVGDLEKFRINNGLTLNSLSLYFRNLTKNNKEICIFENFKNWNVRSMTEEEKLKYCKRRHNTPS
# Experiment: PBM E-score (8-mer binding enrichment) (E-score (-0.5 to 0.5)); higher = stronger / more preferred TF binding; most listed sequences are background and not binding sites
# Settings: protein concentration: 100 nM; construct: GST-full length
# Experimental: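 Universal 'all 10-mer' protein binding microarrays (Agilent AMADID 015681) probed with GST-tagged S. cerevisiae TFs (full-length or DBD) made by in vitro transcription/translation (PURExpress), about 100-200 nM. Bound TF was detected with fluorescent anti-GST. Each ungapped 8-mer (which stands for itself and its reverse complement) is scored by the PBM enrichment score (E-score), a modified Wilcoxon-Mann-Whitney statistic from -0.5 to +0.5, computed with the Universal PBM Analysis Suite. Scale: above 0.35 generally sequence-specific binding.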
row,Sequence,PBM E-score
1,AACCTATA,0.249
2,AGCTGGTC,-0.205
3,CTAGGGGA,0.0176
4,CAGTCACA,-0.101
5,AATCTCAT,0.0612
6,ACAACGAG,-0.124
7,ATGCGGTA,0.123
8,TATTACAA,0.0504
9,AAATGTCG,0.0435
10,AGCCAAAT,0.107
11,CCGTCTGC,-0.189
12,CCATAACC,0.038
13,GACACTGC,-0.151
14,CCAAACTA,-0.0224
15,GAGCTGCC,0.187
16,CGGAAAGA,0.125
17,AACGAACT,-0.169
18,TCGTCGCA,-0.0534
19,CTGGTGTC,0.0745
20,AAGGAGCA,0.0725
21,CACAATCC,-0.0748
22,CTCGACAG,-0.108
23,ATTTTTAG,0.0467
24,ACTCACGA,-0.0437
25,AGCAACGG,0.0877

row,Sequence,PBM E-score
1,AGCAATGA,-0.223
2,GGAGTTCA,-0.218
3,TGATCACA,0.0281
4,ACGATAGT,-0.0972
5,CTGGGGGC,0.0551
6,ATGAGGCG,-0.136
7,ATCGGTTG,0.0167
8,AGCCAGGC,-0.14
9,CGGCAATA,-0.0929
10,TAGAACTA,-0.242
11,CGAATTCA,0.0351
12,CTGGATCA,-0.0687
13,AAATGGCG,0.226
14,CCTACGTA,-0.0382
15,GGGTTACA,-0.021
16,ACGTATTA,0.126
17,CACTCGTA,-0.0543
18,TCCGCTCA,0.165
19,ATTGAAAC,0.143
20,GGAATTGA,0.0304
21,ACTAATGA,-0.0271
22,ACGTCCAT,-0.0703
23,GAGGGTAC,-0.2
24,AGGTGATC,-0.0403
25,AGCCGGTG,0.142

row,Sequence,PBM E-score
1,CTCGCAGA,-0.01
2,ATCCTACC,-0.00286
3,ACTTAGAG,0.16
4,CGGACTAC,-0.0461
5,CAGCAGGC,0.0382
6,CGCGAAGC,0.12
7,CGATCACG,-0.15
8,CGGCCACG,-0.0335
9,ACAGTCTC,-0.111
10,AGCGCAGG,-0.206
11,CAGGATTC,0.249
12,GCACCTTA,0.106
13,ATTACTGG,0.362
14,ACTATGTG,0.00825
15,ACCTGACA,0.0154
16,GGGTGTAC,-0.138
17,AGTACATG,-0.117
18,GTAGTCGA,-0.0515
19,GATAAAGC,-0.135
20,AAGCATGT,-0.156
21,AAGGGAGC,0.156
22,ACCTGAAA,0.244
23,ACTTCCGG,0.229
24,CAGCGGTC,-0.152
25,CCGGATCC,0.279

row,Sequence,PBM E-score
1,CCCAGTCA,-0.127
2,CTAGTCGA,0.0544
3,ACCAGACA,-0.123
4,GACCATGA,-0.254
5,TGCAGACA,0.0275
6,AAGGCTGC,0.302
7,CTTTCAGA,-0.0432
8,GTCCAAAA,0.21
9,AATCGTGC,0.0604
10,CAACGAGC,-0.238
11,AAAAAGTC,-0.0676
12,AACGACAT,0.097
13,CTGAACCA,-0.0507
14,TGAATCCA,0.169
15,AGTGAGAC,-0.352
16,TCATGGGA,0.0378
17,CTAGGCGC,0.178
18,GAAGTAAA,-0.0223
19,AATGCCTA,0.13
20,CGACGGCG,-0.289
21,CGCCAATA,0.144
22,ACTTACCT,-0.188
23,CAGCTGAG,-0.0346
24,ACAGCAGC,0.288
25,CACTCCAG,0.0875

row,Sequence,PBM E-score
1,AACTTGAT,0.195
2,GGACGTAC,-0.249
3,AGTAGTAT,0.143
4,CTATACCA,-0.0503
5,CGAGTCAG,-0.184
6,CAAGTGAC,0.0147
7,CTGAGGTC,-0.0116
8,CTGGGTTA,-0.189
9,GAGGTTCC,0.269
10,CCTCTTGC,-0.0705
11,GAACGCCA,0.159
12,ACCCGGTA,0.0566
13,TGCTTGAA,0.201
14,ACTGACTC,-0.199
15,GATCCATA,0.0394
16,AAAGGCCA,-0.245
17,AGCAACGC,0.0651
18,ACATTACA,0.178
19,ACCAGTAA,0.266
20,ATACGACA,0.0695
21,ATAAGAAT,0.123
22,AATTAACC,0.0095
23,AAAGCTAT,-0.188
24,AATGCACC,0.059
25,CATAGAGC,-0.0186

row,Sequence,PBM E-score
1,CTGGAAGC,0.45
2,CTCACCTC,-0.0783
3,CCAGGGGC,-0.12
4,CTCCCCCA,-0.139
5,GCGAACAC,-0.0366
6,TAACTCAA,0.00679
7,CCTTGCAG,-0.303
8,ATCTGCTG,-0.168
9,ATATGCGA,0.0152
10,GGCCTCAC,-0.109
11,AAACTGTG,0.0668
12,GATGACAA,-0.0664
13,AGGCGCTC,-0.0859
14,CATTGTGA,-0.0738
15,CCTCGGGC,0.0253
16,CGCGAGTA,-0.0789
17,CCACATTA,0.212
18,ACGGAGGA,-0.198
19,AACGACGG,-0.118
20,CCCGCCCA,0.241
21,ACCCCGCC,0.0633
22,ACCAACAG,0.0747
23,CAGCTCAC,-0.114
24,CTTTGTCC,-0.0282
25,CAATCTGA,0.00236

row,Sequence,PBM E-score
1,ACCAGGAA,0.0492
2,ACACCCCT,0.0254
3,ACTAGCCT,-0.176
4,AACCTGGT,0.0343
5,ACCTTCGT,-0.0684
6,CTCTTTCA,-0.126
7,CGTCAGAA,-0.0764
8,GAGTCGGC,-0.0641
9,AGGGTGTG,-0.0625
10,GGCAGACC,-0.296
11,GCGTACCA,-0.136
12,AGTGGCGC,0.267
13,GGCTAGGA,-0.112
14,GTTCGGAA,0.0493
15,TCAGCACA,-0.113
16,ACGGATGA,-0.12
17,ATCCAGAT,0.196
18,ACGTTAGT,-0.123
19,CCCCTTCA,-0.13
20,CTCCATGC,-0.192
21,AATCCGCC,-0.0285
22,AAATGCTT,-0.208
